# PubChem BioAssay AID2675 (National Center for Advancing Translational Sciences (NCATS), 2010)
# Among all 280,000 compounds or so, about 100 (0.036%) were called active. The shares of active, inactive and inconclusive entries below differ from those in the screen. Calls follow the shape of the dose curve; as a rule, active = well fitted inhibition curve with a large enough effect in the signal ratio, with a control signal flat (not every such curve was filed as active); inconclusive = small, poorly fitted or top-dose-only effect, or effect the other way, or a change in a side signal; inactive = no such curve, though single readings can be large or run the other way; the % refers to the signal ratio. Where the call is inconclusive, the potency comes from a doubtful curve fit. “Side channel” marks fits to a control or component signal instead of the main read-out.
# Target: Muscleblind-like protein 1 (Homo sapiens) (UniProt Q9NR56)
# Chain of UniProt Q9NR56 (Q9NR56 whole entry, looked up): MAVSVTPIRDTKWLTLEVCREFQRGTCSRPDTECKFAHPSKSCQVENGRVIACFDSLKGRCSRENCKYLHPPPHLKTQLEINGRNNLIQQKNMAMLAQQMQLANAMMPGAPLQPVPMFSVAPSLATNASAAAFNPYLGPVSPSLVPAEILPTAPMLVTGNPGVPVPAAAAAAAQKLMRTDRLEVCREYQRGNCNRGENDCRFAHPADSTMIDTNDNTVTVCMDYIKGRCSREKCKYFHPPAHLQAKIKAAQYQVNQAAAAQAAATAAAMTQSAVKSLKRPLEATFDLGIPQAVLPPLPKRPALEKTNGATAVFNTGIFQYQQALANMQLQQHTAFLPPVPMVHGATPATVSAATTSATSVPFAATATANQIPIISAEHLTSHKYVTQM
# Experiment: qHTS Assay for Inhibitors of MBNL1-poly(CUG) RNA binding
# Settings: TR-FRET MBNL1-His/biotin-(CUG)12 binding, 665/545 ratio; series mostly up to 57.5 µM
# Summary of the method: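 His-tagged MBNL1 binding to biotinylated (CUG)12 RNA was measured by TR-FRET using terbium anti-His antibody (0.055 ng/ul final) and streptavidin-XL665 (5 nM final). Compounds were titrated 92 nM to 58 uM; 60 min at room temperature.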
# Potency is read from the fitted curve at half-maximal effect; tags tell the direction and shape of the fitted curve or compound fluorescence and quenching.
row,Structure (SMILES),Potency
1,CCCn1c(N)c(N(CCOC)C(=O)c2ccc([N+](=O)[O-])c(C)c2)c(=O)[nH]c1=O,"inconclusive: 11.2 µM [quencher, side channel, partial curve]"
2,Nc1nnc(-c2cn(-c3ccccc3)nc2-c2ccccc2)o1,inactive
3,CC(=O)c1cnc(Nc2ccc(C)cc2)s1,"inconclusive: 14.1 µM [quencher, side channel, partial curve]"
4,COc1ccc(C2c3c(oc4ccc(Cl)cc4c3=O)C(=O)N2CCN2CCOCC2)cc1 (stereo not given),"inconclusive: 39.8 µM [quencher, side channel, single point]"
5,COC(=O)c1ccc(-c2nc3ccccc3o2)cc1,inactive
6,Cc1cc2nsnc2c(S(=O)(=O)N2CCN(C)CC2)c1C,"inconclusive: 7.94 µM [quencher, side channel, partial curve]"
7,COCCCNC(=O)c1cc2c(=O)n3cccc(C)c3nc2s1,"inconclusive: 3.16 µM [quencher, side channel, full curve, poor fit]"
8,Cn1cc(CN2CCCC(C(=O)Nc3ccc(-c4cccc(F)c4)cc3)C2)cn1 (stereo not given),inactive
9,O=C1c2ccccc2-n2c1nc1ccccc1c2=O,"inconclusive: 1.41 µM [quencher, side channel, full curve]"
10,COc1ccc(Nc2ccc(N3C(=O)CC(C)C3=O)cc2[N+](=O)[O-])cn1 (stereo not given),"inconclusive: 12.6 µM [quencher, side channel, partial curve]"
11,COc1ccc(S(=O)(=O)N(CCc2ccccc2)CC(=O)O)cc1C,"inconclusive: 158 µM [inhibitor, partial curve]"
12,CCOC(=O)c1sc(N2N=C(C)/C(=C\c3ccc(OCC(=O)OC)cc3)C2=O)nc1C,inactive
13,FC(F)(F)c1ccc(Sc2nnc(-c3cccs3)n2CC2CCCO2)nc1 (stereo not given),"inconclusive: 39.8 µM [quencher, side channel, single point]"
14,COc1ccc(/C=C2\C(=O)OCc3cc(OC)c(OC)cc32)cc1OC,inactive
15,CC1(N2CCOCC2)CC2(O)C(=[N+]1[O-])CCc1c2no[n+]1[O-] (stereo not given),"inconclusive: 15.8 µM [quencher, side channel, partial curve]"
16,O=C(Cc1ccccc1)N/N=C\c1ccc(Br)o1,"inconclusive: 31.6 µM [quencher, side channel, single point]"
17,CC(C)C(=O)Nc1ccc(N2CCCC2)cc1,"inconclusive: 31.6 µM [quencher, side channel, single point]"
18,N#Cc1ccccc1NC(=O)c1cc(=O)c2ccccc2o1,"inconclusive: 10 µM [quencher, side channel, partial curve]"
19,NC(=O)C1CC(=O)N(c2ccc(OCc3ccccc3Cl)cc2)C1 (stereo not given),inactive
20,COc1ccc(/C=N/NC(=O)C(=O)NCc2cccnc2)cc1OC,"inconclusive: 25.1 µM [quencher, side channel, single point]"

row,Structure (SMILES),Potency
1,COc1ccc(CNC(=O)C2CC(c3ccccc3[N+](=O)[O-])=NO2)cc1 (stereo not given),"inconclusive: 31.6 µM [quencher, side channel, single point]"
2,CC(=O)NNC(=O)CC(=O)Nc1nc(C23CC4CC(CC(C4)C2)C3)cs1,inactive
3,O=[N+]([O-])c1ccc(-n2nnnc2CN2CCOCC2)cc1,"inconclusive: 7.08 µM [quencher, side channel, full curve]"
4,Nc1nc(SCc2ccc([N+](=O)[O-])cc2)c2ncn(C3OC(CO)C(O)C3O)c2n1 (stereo not given),"inconclusive: 11.2 µM [quencher, side channel, partial curve]"
5,Cc1noc(/C=C/c2cccnc2)c1[N+](=O)[O-],"inconclusive: 12.6 µM [quencher, side channel, partial curve]"
6,CC(=O)c1cc2c(cc1NC(=O)Nc1cccc(Cl)c1)OCCO2,"inconclusive: 35.5 µM [quencher, side channel, single point]"
7,Cc1ccccc1C(=O)N/N=C/c1ccc([N+](=O)[O-])s1,"inconclusive: 11.2 µM [quencher, side channel, partial curve]"
8,COc1cccc(-c2noc(C3CCCN(C(=O)CC(C)(C)C)C3)n2)c1 (stereo not given),inactive
9,CCN1CCS/C1=C\C=C\C1=[N+](CC)CCS1,"inconclusive: 22.4 µM [quencher, side channel, partial curve]"
10,Cc1cc(C)nc(NC(N)=NC(C)c2ccccc2)n1 (stereo not given),"inconclusive: 158 µM [inhibitor, single point]"
11,O=C(CCOc1ccccc1)Nc1ccccc1[N+](=O)[O-],"inconclusive: 14.1 µM [quencher, side channel, partial curve]"
12,CC1CCN(CCc2nc3cc(NC(=O)NC4CCCCC4)ccc3n2C)CC1,inactive
13,CCOC(=O)C(OC(=O)c1sc(=S)n(C)c1C)C(C)=O (stereo not given),"inconclusive: 3.55 µM [quencher, side channel, single point]"
14,O=C1NCCN/C1=C\C(=O)c1ccc(Br)cc1,"inconclusive: 14.1 µM [quencher, side channel, partial curve]"
15,Cc1ccc(/C=C2\SC(=O)N(CCC(=O)N3CCN(C)CC3)C2=O)cc1,"inconclusive: 8.91 µM [quencher, side channel, partial curve]"
16,C=CCNC(=O)COC(=O)CNC(=O)c1cc(Cl)cc([N+](=O)[O-])c1,"inconclusive: 15.8 µM [quencher, side channel, partial curve]"
17,Cc1cc(C(=O)Nc2nc(C)c(C(=O)N(C)C)s2)ccc1[N+](=O)[O-],"inconclusive: 17.8 µM [quencher, side channel, partial curve]"
18,O=C(O)CCN1C(=O)c2ccc(Oc3ccc4c(c3)C(=O)N(CCC(=O)O)C4=O)cc2C1=O,"inconclusive: 15.8 µM [quencher, side channel, partial curve]"
19,O=C1C=C(N(CCO)Cc2ccccc2)c2ccccc2C1=O,"inconclusive: 12.6 µM [quencher, side channel, partial curve]"
20,CCCCC(=O)Nc1ncc([N+](=O)[O-])s1,"inconclusive: 7.94 µM [quencher, side channel, full curve]"

row,Structure (SMILES),Potency
1,N#C/C(=C\c1c(N2CCC(C(N)=O)CC2)nc2ccccn2c1=O)C(=O)NC1CCCCC1,"inconclusive: 28.2 µM [quencher, side channel, partial curve]"
2,Nc1c(C(=O)NC2CC2)sc2nc3c(c(-c4ccco4)c12)CC/C3=C/c1ccco1,"inconclusive: 14.1 µM [quencher, side channel, single point]"
3,O=C(CCN1C(=O)/C(=C/c2ccc(F)cc2)SC1=S)NC1CCS(=O)(=O)C1 (stereo not given),"inconclusive: 3.55 µM [quencher, side channel, full curve]"
4,COC(=O)c1cnc2ccccc2n1,"inconclusive: 8.91 µM [quencher, side channel, partial curve]"
5,COc1c(Cl)cc(Cl)cc1/C=N/n1cnnc1,"inconclusive: 39.8 µM [quencher, side channel, single point]"
6,Cc1nnc(SCc2cccc([N+](=O)[O-])c2)s1,"inconclusive: 31.6 µM [quencher, side channel, partial curve]"
7,CCOC(=O)C1=C(C)C2C3C(=O)N(c4cc(C)ccc4C)C(=O)C3C1(C)C1C(=O)N(c3cc(C)ccc3C)C(=O)C21 (stereo not given),"inconclusive: 7.08 µM [fluorescent, side channel, full curve, poor fit]"
8,CCOC(=O)CSc1nc(N)c(C#N)c(CC(C)C)c1C#N,"inconclusive: 35.5 µM [fluorescent, side channel, single point]"
9,COC(=O)C(C)Oc1ccc2c3c(c(=O)oc2c1)CCCCC3 (stereo not given),"inconclusive: 22.4 µM [quencher, side channel, partial curve]"
10,Cn1c(=O)c(C(=O)COC(=O)c2cc(-c3ccco3)nc3ccccc23)c(N)n(CC2CC2)c1=O,"inconclusive: 25.1 µM [quencher, side channel, partial curve, poor fit]"
11,CCOC(=O)C1(Cc2ccc(Cl)cc2)CCN(CCCn2cccn2)CC1,inactive
12,COc1cc(/C=C2\SC(=Nc3ccc(O)cc3)NC2=O)cc(OC)c1OC,inactive
13,CCc1nc(-c2ccccc2)c2ccccn12,"inconclusive: 31.6 µM [quencher, side channel, single point]"
14,CCOc1ccc(S(=O)(=O)N2CCC(C(=O)N3CCCC3)CC2)cc1C,"inconclusive: 39.8 µM [quencher, side channel, single point]"
15,Cc1cc(NC(=O)Cn2nc([N+](=O)[O-])c(Br)c2C)no1,"inconclusive: 28.2 µM [quencher, side channel, single point]"
16,Cc1ccc(S(=O)(=O)NN2C(=O)/C(=C/c3ccccn3)SC2=S)cc1,"inconclusive: 39.8 µM [quencher, side channel, single point]"
17,Cn1cnc([N+](=O)[O-])c1NC(C)(C)C,inactive
18,CCN(CC)C(=O)C1CCCN(C/C(C)=C/c2ccccc2)C1 (stereo not given),inactive
19,CCc1ccc(-c2ccc3nnc(SC)n3n2)cc1,"inconclusive: 11.2 µM [quencher, side channel, partial curve]"
20,O=C(Cc1nc(-c2ccc([N+](=O)[O-])cc2)cs1)Nc1ccccc1,"inconclusive: 10 µM [quencher, side channel, partial curve]"
